The whole screen tested about 16,000 compounds, of which about 120 (0.75%) were called active. Inconclusive results, whose numbers are uncertain, are shown with a selection of clear calls. Calls follow the shape of the dose curve; as a rule, active = well fitted inhibition curve with a large enough effect; inconclusive = small, poorly fitted or top-dose-only effect; inactive = no such curve, though single readings can be large or run the other way. Potencies of inconclusive entries are left out as doubtful fits.
target: Rap guanine nucleotide exchange factor 3 (Homo sapiens) (UniProt O95398); assay: Validation qHTS for antagonist of cAMP-regulated guanine nucleotide exchange factor 3 (EPAC1); details: EPAC1 Rap1B-BODIPY-GDP exchange, fluorescence; activity change, negative = inhibition: at 150 µM (top of the series); also: nearly all actives have a fitted effect of over 75% in size;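 as to activity change, negative = inhibition: plate controls were DMSO for no effect and ATA control for full effect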
Chain of UniProt O95398 (O95398 whole entry, looked up): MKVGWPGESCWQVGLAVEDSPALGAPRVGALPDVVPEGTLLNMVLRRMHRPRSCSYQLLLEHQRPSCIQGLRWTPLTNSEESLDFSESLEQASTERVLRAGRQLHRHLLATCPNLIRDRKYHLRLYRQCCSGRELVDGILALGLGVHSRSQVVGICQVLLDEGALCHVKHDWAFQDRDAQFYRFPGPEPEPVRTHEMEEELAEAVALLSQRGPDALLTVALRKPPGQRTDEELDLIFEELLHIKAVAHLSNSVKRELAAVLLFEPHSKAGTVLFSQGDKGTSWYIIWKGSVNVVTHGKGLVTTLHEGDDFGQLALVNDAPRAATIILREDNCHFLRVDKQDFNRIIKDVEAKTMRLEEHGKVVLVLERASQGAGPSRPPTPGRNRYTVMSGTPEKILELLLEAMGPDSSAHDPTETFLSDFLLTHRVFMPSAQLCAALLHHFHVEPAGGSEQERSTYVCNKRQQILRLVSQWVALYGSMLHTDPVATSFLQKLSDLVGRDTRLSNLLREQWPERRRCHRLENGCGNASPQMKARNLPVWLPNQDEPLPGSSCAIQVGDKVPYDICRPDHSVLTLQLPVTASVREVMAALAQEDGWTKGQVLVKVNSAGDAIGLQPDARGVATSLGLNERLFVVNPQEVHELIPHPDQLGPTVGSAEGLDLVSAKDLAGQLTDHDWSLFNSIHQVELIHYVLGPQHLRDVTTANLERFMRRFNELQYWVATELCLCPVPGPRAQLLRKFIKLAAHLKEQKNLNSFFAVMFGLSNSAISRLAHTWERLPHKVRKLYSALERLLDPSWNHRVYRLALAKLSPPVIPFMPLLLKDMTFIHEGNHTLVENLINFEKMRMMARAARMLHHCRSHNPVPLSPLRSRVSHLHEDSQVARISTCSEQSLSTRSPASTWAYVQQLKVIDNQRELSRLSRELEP
In short: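 EPAC1 (100 nM) mixed with 250 nM RAP1B-BODIPY-GDP and 50 uM GDP; compounds in concentration series, 5 min at room temperature. Fluorescence (ex 480/em 540 nm) read every 5 min for 30 min; normalized to ATA control and DMSO.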
Potency is read from the fitted curve at half-maximal effect; tags tell the direction and shape of the fitted curve.

Row | Structure (SMILES) | Potency | activity change, negative = inhibition
1 | CN(C)c1ccc(-c2nccc(Nc3ccc(F)cc3)n2)cc1 | inconclusive [inhibitor, partial curve, poor fit] | 
2 | CCCCN(CCCC)CCCOC(=O)c1ccc(N)cc1 | inconclusive [inhibitor, single point] | 
3 | O=C(Nc1cccc2c(=O)cc(-c3nn[nH]n3)oc12)c1ccc(OCCCCc2ccccc2)cc1 | inconclusive [inhibitor, full curve, poor fit] | 
4 | COc1cc(/C=C(\C#N)C(=O)Nc2nnc(C(F)(F)F)s2)ccc1OCc1ccc(C(F)(F)F)cc1C(F)(F)F | inconclusive [inhibitor, single point] | 
5 | C=CCN([C@@H](CC(C)C)C(=O)OC)S(=O)(=O)N(CC=C)[C@@H](CC(C)C)C(=O)OC | inconclusive [inhibitor, partial curve] | 
6 | Cc1cccc(CNc2ccnc(-c3cccc(C#N)c3)n2)c1 | inconclusive [inhibitor, partial curve, poor fit] | 
7 | O=C(O)c1cc(-c2ccccc2)nc2ccccc12 | inactive | 
8 | CC(C)(CNC(=O)c1cnn(-c2nccc(-c3cc4ccccc4o3)n2)c1C1CC1)N1CCOCC1 | inconclusive [inhibitor, partial curve, poor fit] | 
9 | Nc1nc2c(nc(Br)n2C2OC3COP(=O)(O)O[C@@H]3C2O)c(=O)[nH]1 (stereo partly specified) |  | inactive: 0% [at 75.8 µM]
10 | O=C(Nc1ccc(Oc2ccc(Cl)cc2)c(Cl)c1)c1cc(I)cc(I)c1O | inconclusive [inhibitor, single point] | 
11 | Oc1ccc2c(c1)OC(c1ccc(O)c(O)c1)C(O)C2 (stereo unspecified) |  | inactive: 20.8%
12 | CCCCCCCCCCCC[N+](C)(C)Cc1ccccc1 |  | inactive: 0.907%
13 | O=c1c(O)c(-c2ccc(O)cc2O)oc2cc(O)cc(O)c12 | inconclusive [inhibitor, full curve] | 
14 | COc1ccc(-c2nc3cnc(Nc4ccccc4)nc3n(Cc3cccs3)c2=O)cc1 |  | inactive: -3.69%
15 | O=C1c2ccccc2C(=O)c2c1ccc(O)c2O | inconclusive [inhibitor, partial curve] | 
16 | CCOC(=O)C[C@H]1c2ccc(C(F)(F)F)cc2S(=O)(=O)N1c1ccccc1 | inconclusive [inhibitor, partial curve] | 
17 | CCCC[C@H]1COCCS(=O)(=O)N1Cc1cccc(Cl)c1 | inconclusive [inhibitor, full curve] | 
18 | Cc1ccc2c(c1)C(=O)C1(O)CCN(c3ccccc3)C1=N2 (stereo unspecified) | inconclusive [inhibitor, partial curve] | 
19 | CCCCCCCCCCCCC(O)C(=O)O (stereo unspecified) |  | inactive: -12.9% [at 15.3 µM]

Row | Structure (SMILES) | Potency | activity change, negative = inhibition
20 | O=Cc1ccc(Cl)cc1 | inconclusive [inhibitor, single point] | 
21 | CN(C)c1ccc(C(=C2C=CC(=[N+](C)C)C=C2)c2c(O)c(S(=O)(=O)[O-])cc3cc(S(=O)(=O)O)ccc23)cc1 | inconclusive [inhibitor, single point] | 
22 | CC1(C)[C@@H](O)CC[C@]2(C)C3C(=O)C=C4C5C[C@@](C)(C(=O)O)CC[C@]5(C)CC[C@@]4(C)[C@]3(C)CC[C@@H]12 (stereo partly specified) | inconclusive [inhibitor, single point] | 
23 | Cc1cc(-c2ccc(N=Nc3c(S(=O)(=O)O)cc4cc(S(=O)(=O)O)cc(N)c4c3O)c(C)c2)ccc1N=Nc1c(S(=O)(=O)O)cc2cc(S(=O)(=O)O)cc(N)c2c1O | inconclusive [inhibitor, partial curve, poor fit] | 
24 | CN1CCN(c2nc3cc(C(F)(F)F)ccc3n3cccc23)CC1 | inconclusive [inhibitor, partial curve, poor fit] | 
25 | COC(=O)CC[C@@H](C)[C@H]1CC[C@H]2[C@@H]3CC[C@@H]4C[C@H](O)CC[C@]4(C)[C@H]3C[C@H](O)[C@]12C | inconclusive [inhibitor, partial curve, poor fit] | 
26 | CCC(C)[C@H]1O[C@]2(C=C[C@@H]1C)C[C@@H]1C[C@@H](C/C=C(\C)[C@@H](O[C@H]3C[C@H](OC)[C@@H](O[C@H]4C[C@H](OC)[C@H](NC(C)=O)[C@H](C)O4)[C@H](C)O3)[C@@H](C)/C=C/C=C3\CO[C@@H]4[C@H](O)C(C)=C[C@@H](C(=O)O1)[C@]34O)O2 (stereo partly specified) | inconclusive [inhibitor, partial curve] | 
27 | Cc1cc(/C=C/c2ccc3cc(N(C)C)ccc3[n+]2C)c(C)n1-c1ccccc1 | inconclusive [inhibitor, partial curve, poor fit] | 
28 | COC(=O)[C@H](CC(C)C)NS(=O)(=O)N(Cc1ccccc1)[C@@H](CC(C)C)C(=O)OC | inconclusive [inhibitor, partial curve, poor fit] | 
29 | COC(=O)C1=C(C)NC(C)=C(C(=O)OCCCN2CCC(c3ccccc3)(c3ccccc3)CC2)[C@H]1c1cccc([N+](=O)[O-])c1 | inconclusive [inhibitor, partial curve] | 
30 | CS(=O)(=O)Nc1cccc(-c2nccc(NCc3cccs3)n2)c1 |  | inactive: -14.7%
31 | CCN1CCN(c2cc3c(cc2F)c(=O)c(C(=O)O)cn3C2CC2)CC1 | inconclusive [inhibitor, single point] | 
32 | CC(C)(C)CC(C)(C)N=C1Nc2cc(Cl)c(Cl)cc2N[C@]12C[C@H]1CCCC(=O)N3CC[C@@H](C2)[C@@H]13 | inconclusive [inhibitor, full curve] | 
33 | O=C(O)CCCc1ccccc1 |  | inactive: 13.7%
34 | COc1ccc2cc(C(C)C(=O)O)ccc2c1 (stereo unspecified) | inconclusive [inhibitor, single point] | 
35 | Cc1cccc(CNc2ncncc2-c2ccccc2Cl)c1 | inconclusive [inhibitor, single point] | 
36 | O=C(OC1Cc2c(O)cc(O)cc2OC1c1cc(O)c(O)c(O)c1-c1c(C2Oc3cc(O)cc(O)c3CC2O)cc(O)c(O)c1O)c1cc(O)c(O)c(O)c1 (stereo unspecified) | inconclusive [inhibitor, partial curve, poor fit] | 
37 | FC(F)(F)c1ccccc1-c1cc(NCc2ccccc2)ncn1 | inconclusive [inhibitor, single point] | 
38 | C[C@@H]1C[C@@H](CC(=O)NCC2Cc3cccc(-c4ccncc4)c3O2)NC(=S)N1 (stereo partly specified) | inconclusive [inhibitor, partial curve, poor fit] | 

Row | Structure (SMILES) | Potency | activity change, negative = inhibition
39 | CCN1/C(=C/C=C/c2sc3ccccc3[n+]2CC)Sc2ccccc21 | inconclusive [inhibitor, partial curve, poor fit] | 
40 | CCCCCCCCCNC(=O)[C@H](NC(=O)COc1ccccc1)[C@@H]1NC(C(=O)OC)C(C)(C)S1 (stereo partly specified) | inconclusive [inhibitor, full curve] | 
41 | CO[C@H]1C[C@@H]2CC[C@@H](C)[C@@](O)(O2)C(=O)C(=O)N2CCCC[C@H]2C(=O)O[C@H](C(C)C[C@H]2CC[C@@H](O)[C@H](OC)C2)CC(=O)[C@H](C)/C=C(\C)[C@@H](O)[C@@H](OC)C(=O)[C@H](C)C[C@H](C)/C=C/C=C/C=C/1C (stereo partly specified) | inconclusive [inhibitor, partial curve] | 
42 | Cc1cc2ccccc2c[n+]1CC(=O)c1ccc(F)cc1 |  | inactive: 13.1%
43 | COc1ccccc1CCC(=O)O | inconclusive [inhibitor, single point] | 
44 | N[C@H](C(=O)O)c1cc(O)cc(O)c1 | inconclusive [inhibitor, single point] | 
45 | CN(C)c1ccc(/C=C/c2ccnc3ccc4ccccc4c23)cc1 | active: 100 µM | 
46 | CC(=O)Oc1c2c(c3c(c1CC=C(C)C)O[C@@]14C(=CC5CC1C(C)(C)OC4(C/C=C(\C)C(=O)O)C5=O)C3=O)OC(C)(CCC=C(C)C)C=C2 (stereo partly specified) | active: 89.1 µM | 
47 | CCOC(=O)C1=C(C)NC(C)=C(C(=O)OCC)C1c1c(F)c(F)c(F)c(F)c1F | inconclusive [inhibitor, single point] | 
48 | COc1ccc(CNc2ncnc3ccc(-c4ccc(N(C)C)cc4)cc23)c(OC)c1 |  | inactive: -8.56%
49 | Cc1ccc(OC[C@H](O)[C@H](C)NC(C)C)c2c1CCC2 | inconclusive [inhibitor, single point] | 
50 | O=c1c(-c2cccs2)nc2cnc(N3CCNCC3)nc2n1Cc1cccs1 | inconclusive [inhibitor, partial curve] | 
51 | O=C(Nc1ccccc1)O[C@@H]1C[C@H]2CCCC(=O)N3CC[C@@H](C1)[C@@H]23 |  | inactive: -2.16%
52 | C[C@H]1C=C2C=C[C@H](C)[C@H](CC[C@@H]3C[C@@H](O)CC(=O)O3)[C@H]2[C@@H](OC(=O)[C@@H](C)CCO)C1 | inconclusive [inhibitor, full curve] | 
53 | CN1CCc2cc3c(cc2C(=O)Cc2ccc4c(c2C1)OCO4)OCO3 | inconclusive [inhibitor, partial curve, poor fit] | 
54 | CSc1nc(N)c2ncn([C@@H]3O[C@H](COP(=O)(O)OP(=O)(O)OP(=O)(O)O)[C@@H](O)[C@H]3O)c2n1 | inconclusive [inhibitor, full curve] | 
55 | COc1c2ccoc2nc2c(OC)c(OCC(O)C(C)(C)O)ccc12 (stereo unspecified) | inconclusive [inhibitor, partial curve] | 
56 | C[C@H]1C[C@H]2[C@@H]3CCC4=CC(=O)C=C[C@]4(C)[C@@H]3C(=O)C[C@]2(C)[C@@]1(O)C(=O)CO | inconclusive [inhibitor, partial curve, poor fit] | 

Source: PubChem BioAssay AID1645882 (National Center for Advancing Translational Sciences (NCATS), 2021)
